In all, about 13,000 compounds were measured (“IFI”: median about 4, highest 2% from about 17 on). Some of the results follow.
Assay: GSK_TCMDC: Inhibition Frequency Index (IFI). The number of non-kinase HTS assays where a compound showed > 50 % inhibition, expressed as a percentage of the number of such assays in which the compound was tested (-0 is zero)
Format: functional

| SMILES | IFI |
| --- | --- |
| O=C(Nc1cc(F)cc(-c2cccnc2)c1)c1ccc2c(=O)n(Cc3ccccc3)cnc2c1 | 0.93% |
| CN(C(=O)/C=C/c1cc(C(F)(F)F)ccc1F)C1CCN(CCCCCNC(=O)/C=C/c2ccc(Cl)c(Cl)c2)CC1 | 12.4% |
| CCCCN(CCCC)CCOc1cc2c(cc1OC)CCN2C(=O)/C=C/c1ccccc1Cl | 3.65% |
| Cc1cc2c(cc1C(F)(F)F)N(C(=O)Nc1cnc(OCCN(C)C)c(C(F)(F)F)c1)CC2 | 6.04% |
| N[C@@H](Cc1ccc(O)cc1)C(=O)NC(c1ccccc1)c1c(O)ccc2ccccc12 (stereo not given in full) | 0.73% |
| COc1ccc(Nc2nc(NC3CCN(C)CC3)cc(-c3ccc(OC)cc3)n2)cc1 | 8.57% |
| Cc1ccc(CN2CCCN(Cc3ccc(C(=O)Nc4ccc(Cl)cc4)cc3)CC2)s1 | 14.5% |
| Cc1cc([N+](=O)[O-])ccc1N1CCN(CCCCNC(=O)c2ccc(NC(=O)c3ccc(Cl)cc3)cc2)CC1 | 4.39% |
| CCOC(=O)c1ccc(N2CCN(CCCNC(=O)/C(=C/C=C/c3cc4cc(Cl)c(Cl)cc4[nH]3)OC)CC2)cc1 | 6.11% |
| CCOc1ccc(OCC(=O)Nc2nc(-c3ccc(OC)cc3)c(C)s2)cc1 | 3.45% |
| CCOC(=O)c1ccc(NC(=O)N(Cc2ccc(-c3ccc(CN4CCNCC4)cc3)cc2)C2CCN(Cc3ccccc3)CC2)cc1 | 7.64% |
| Fc1ccc(Nc2ccnc3cc(-c4ccc(CN5CCOCC5)o4)ccc23)c(Cl)c1 | 11.3% |
| Cc1cccc2nc(-c3ccc(-c4ccc(CNCc5ccc(CN)cc5)cc4)s3)[nH]c12 | 11.9% |
| Cn1nc(-c2ccc(S(=O)(=O)N3CCC(CCN4CCC(c5c[nH]c6ccccc56)CC4)CC3)s2)cc1C(F)(F)F | 3.52% |
| COc1ccc2nccc([C@@H](O)CN3CCC(NCc4nc5ccccc5s4)CC3)c2c1 | 5.11% |
| CCN(c1ccccc1)S(=O)(=O)c1ccc(OC)c(NC(=O)c2cccc(C(F)(F)F)c2)c1 | 3.61% |
| Cc1cc(-c2ccnc(Nc3cccc(C#N)c3)n2)cc(C)c1O | 3.57% |
| CN1CCCN(Cc2ccc(-c3cccc(NC(=O)c4ccc(C#N)cc4)c3)cc2)CC1 | 3.92% |
| COc1ccccc1N(C)CCNc1cc(C)nc(Nc2ccc(C)cc2)n1 | 6.25% |
| CC(C)(C)C(=O)Oc1ccc(CC2NCCc3cc(OC(=O)C(C)(C)C)c(OC(=O)C(C)(C)C)cc32)cc1OC(=O)C(C)(C)C (stereo not given) | 0.7% |
| ON=C1CCc2cc(-c3[nH]c(-c4cccc(OCCNCc5ccc(F)cc5)c4)nc3-c3ccncc3)ccc21 | 5.19% |
| CC(C#N)Cc1ccc(-c2cnc(N)c3cc(-c4ccnc(N)n4)ccc23)cc1 (stereo not given) | 10.9% |
| Cc1cccc2nc(-c3cccc(-c4cccc(CNCCCN5CCCC5=O)c4)c3)[nH]c12 | 4.9% |

| SMILES | IFI |
| --- | --- |
| COc1ccc2[nH]c3ccccc3c(=O)c2c1 | 2.26% |
| COc1ccc(CC(=O)NC2CCN(c3ccnc4cc(Cl)ccc34)C2)cc1 (stereo not given) | 1.54% |
| CCc1cn2c3c(cc(C(=O)N[C@@H](Cc4ccccc4)[C@H](O)CNCc4ccccc4C)cc13)N(C)S(=O)(=O)CC2 | 6.52% |
| Cc1ccc(NC(=O)NC2CCN(c3ccnc4cc(Cl)ccc34)C2)cc1 (stereo not given) | 3.08% |
| Cc1ccccc1CNc1nccc(NCCC(=O)Nc2ccccc2)n1 | 12.2% |
| CN1CCN(CC2(Nc3nccc(NCCc4cn(C)c5ccccc45)n3)CCCCC2)CC1 | 14.3% |
| O=C(/C=C/c1ccc(Cl)c(Cl)c1)N1CCC(CCCN2CCC(c3c[nH]c4ccc(O)cc34)CC2)CC1 | 10.2% |
| COC(=O)c1ccc(Nc2nccc(Nc3ccc(Oc4ccccc4)cc3)n2)cc1 | 1.44% |
| CC1(C)N=C(N)N=C(N)N1c1ccc(I)cc1 | -0% |
| CN(C)CCNC(=O)c1ccc(-c2cnc3ccc(NCc4ccc(Cl)c(Cl)c4)nn23)cc1 | 9.02% |
| COc1cc(NC(=O)c2c(-c3c(F)cccc3Cl)noc2C)c(OC)cc1Cl | 0.7% |
| Cc1cc(F)ccc1-c1nc(NCC(O)CNCCc2ccccc2)nc2c1ccc(=O)n2-c1c(F)cccc1F (stereo not given) | 5.47% |
| Cc1cc(OCCCNC(=N)c2ccc3ccccc3c2)c(C(C)C)cc1Cl | 13% |
| Cc1sc(N2CCN(C)CC2)nc1C(=O)Nc1ccc(F)cc1C(F)(F)F | -0% |
| c1ccc(CNCCn2c(-c3ccc4c(c3)CCO4)nc3c(N4CCCC4)cccc32)cc1 | 3.47% |
| COc1ccc(C2C(C(=O)Nc3ccc(C)cc3Br)c3ccccc3C(=O)N2C)cc1 (stereo not given) | 0.7% |
| COc1cccc(C(=O)Nc2nc3c(s2)CCN(Cc2ccccc2N2CCNCC2)CC3)c1 | 9.38% |
| COc1ccc(NC(=O)[C@H](CC(C)C)Nc2cc(C)nc(NCCc3cccs3)n2)cc1 | 7.14% |
| CCC(C)NS(=O)(=O)c1ccc2nc(Nc3cccc(SC)c3)n(C(C)C(C)C)c2c1 (stereo not given) | -0% |
| COc1cc(Cc2cnc(N)nc2N)cc(OC)c1OCCNC(=O)[C@@H](N)CCC(=O)O | 0% |
| O=C(/C=C/C=C/c1ccc(Cl)c(Cl)c1)NCCCCCN1CCCC2CCCCC21 (stereo not given) | 5.19% |
| COc1ccc(-c2cccc(NC(=O)c3cccc(C#N)c3)c2)cc1CN1CCNCC1 | 4.95% |

From ChEMBL document CHEMBL1157539, “Thousands of chemical starting points for antimalarial lead identification” (Nature, 2010)
